Test results: PubChem BioAssay AID1963576 (National Center for Advancing Translational Sciences (NCATS), 2024)
The campaign covered roughly 46,000 compounds. About 60 (0.1%) were called active. Inconclusive results (about 3%) are left out. The call rests on the fitted dose curve; in most records, active means well fitted inhibition curve with a large enough effect; inconclusive means small, poorly fitted or top-dose-only effect; inactive means no such curve, though single readings can be large or run the other way. This is one part of the list.

experiment: Primary qHTS assay for Inhibitors of ovarian cancer metastasis using an organotypic tumor microenvironment (TME) model.; further: nearly all actives have a fitted effect of over 65% in size;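 on activity change, negative = inhibition: plate controls were DMSO wells for no effect and tomatine positive control wells for full effect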; settings: SKOV3ip1-GFP adhesion/invasion on 3D omental model, fluorescence; series mostly up to 45.8 µM; activity change, negative = inhibition: at the top concentration
How it was run: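 qHTS, 4-pt dose (0.36-46 umol/L); SKOV3ip1-GFP, 1,200 cells/well, no FBS; primary omental fibroblast/mesothelial co-culture 48 h pre-grown; 2 h RT + 16 h 37 C; PBS wash, 4% PFA; GFP count 488/509 nm.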

Activity change, negative = inhibition, inactive:
Cc1cc(NS(=O)(=O)c2ccc(NC(=O)COc3c(C)ccc(C)c3C)cc2)nc(C)n1 7.58%, CCOc1ccc(-n2c(=O)c3c(C)c(C)sc3n(CC(=O)C(C)(C)C)c2=O)cc1 2.55%, CCOc1ccc(CC(=O)NC2CC(=O)N(c3cccc(F)c3)C2)cc1 (stereo not given) 1.62%, CC(CNC(=O)c1ccc2c(c1)nc1n2CCCCC1)c1ccccc1 (stereo not given) -8.88%, COc1ccccc1OCC(=O)N(Cc1ccco1)Cc1ccccc1F -6.74%, O=c1cc(COc2ccc(Cl)cc2Cl)nc2scc(-c3ccccc3)n12 -23.4%, CCCCC(=O)Nc1nnc(S(=O)(=O)N(C)Cc2ccc(Cl)cc2)s1 -2.75%, Cc1cc(C)cc(NC(=O)CCc2c(C)nc3nc(CNC(=O)c4cccc(F)c4)nn3c2C)c1 4.2%, COCCCNc1nc2c(c(=O)n(Cc3ccc(F)cc3)c(=O)n2C)n1C 11.7%, COc1ccc(CNC(=O)COCc2cc(-c3ccc4c(c3)OCO4)on2)cc1 9.77%, CCc1cccc(C)c1NC(=O)c1ccc2c(c1)CCN2S(=O)(=O)c1ccc(Cl)cc1 -5.93%, COc1cc(C(=O)NCC(c2ccco2)S(=O)(=O)c2cccs2)cc(OC)c1OC (stereo not given) -17.8%, CCS(=O)(=O)N1CCc2cc(C(=O)Nc3ccc(Br)cc3F)ccc21 7.32%, CC(=O)c1ccc(N2CCN(C(=O)c3cn(C)c(=O)c4c3c3ccccc3n4C)CC2)cc1 5.64%, Cc1ccc(-n2c(=O)c3c(c4cc(C)ccc4n3C)n(CC(=O)Nc3ccc(F)cc3)c2=O)cc1 -6.89%, Cc1c(Cl)cccc1Nc1nn2c(=O)c3ccccc3nc2s1 4.3%, COC(=O)c1cc2oc3ccccc3c2n1Cc1ccc(C)cc1 1.9%, COc1ccc(N2CCN(S(=O)(=O)c3ccc(CC(C)C)cc3)CC2)cc1 -3.89%, Cc1oc(-c2ccccc2F)nc1CS(=O)(=O)CC(=O)N1CCN(c2ccccc2)CC1 -7.42%, Cc1ccc([N+](=O)[O-])cc1NC(=O)CN(c1ccccc1)S(=O)(=O)N(C)C 2.3%, CCOC(=O)c1cccc(NC(=O)C(C)n2nc(C)c3c(C)n(-c4ccccc4)nc3c2=O)c1 (stereo not given) -4.09%, COc1ccccc1CNC(=O)CC(c1ccc(F)cc1)N1Cc2ccccc2C1=O (stereo not given) -7.11%, Cc1ccccc1-c1noc(-c2ccc(NCC3CCCO3)c([N+](=O)[O-])c2)n1 (stereo not given) -1.61%, CCOc1ccc(NC(=O)Cn2c(=O)n(CCCC(=O)NCCc3ccc(Cl)cc3)c(=O)c3ccccc32)cc1 7.47%, COc1ccc(CNC(=O)c2cc3c(=O)n(Cc4ccco4)ccc3nc2C)cc1 2.54%, COc1cccc(NC(=O)CCNS(=O)(=O)c2ccc3c(c2)oc(=O)n3C)c1 2%, COc1cc2c(cc1OC)n(Cc1cccc(C(F)(F)F)c1)c(=O)n1nc(-c3ccccc3)nc21 -6.01%, Cc1cc(C)c(NC(=O)CN(C)S(=O)(=O)c2ccc3c(c2)CCC(=O)N3)c(C)c1 -7.15%, CC(=O)c1cccc(NC(=O)c2nc(-c3ccccc3)n(-c3ccccc3)n2)c1 -16.7%, CCn1cc(C(=O)N2CCN(c3ccc(C)cc3)C(C)C2)c(=O)c2cc(S(=O)(=O)N3CCCC3)ccc21 (stereo not given) -2.43%, CCC(C)NC(=O)C1CCN(S(=O)(=O)c2ccc3c(c2)CCCN3C(C)=O)CC1 (stereo not given) -20.1%, CCc1ccccc1NC(=O)C(=O)NCCCN1CCOCC1 -10%, COc1cc2c(cc1OC)C(COc1cccc(C(F)(F)F)c1)N(C(=O)c1ccc(S(=O)(=O)N3CCCC3)cc1)CC2 (stereo not given) -7.29%, O=C(CSCn1nnc2c(=O)[nH]c(Cc3ccc(F)cc3)nc21)Nc1cccc(C(F)(F)F)c1 21.7%, CCOc1ccc(N(C)S(=O)(=O)c2ccc3c(c2)CCCN3C(C)=O)cc1 -5.51%, CC(=O)Nc1ccc(NC(=O)CCCn2nc(C)c3sc4ccccc4c3c2=O)cc1 -14.6%, CCOc1ccc(NS(=O)(=O)c2cc3c(cc2Cl)NC(=O)CO3)cc1 9.52%, O=C(C[C@@H]1CC=CCCC(=O)O[C@H](c2ccccc2)CNC1=O)NCc1ccc(Cl)cc1 41.8%, O=C(Cn1c(=O)c2cccn2c2cccnc21)NCc1cccc(F)c1 3.35%, CCOc1ccc(NC(=O)c2ccc3[nH]c(C)c(C)c3c2)cc1 0.759%, Cc1nc2ccc(S(=O)(=O)N(CC(=O)Nc3ccc(F)cc3F)Cc3ccccc3)cc2s1 2.62%, CNC(=O)CCCN1C(=O)c2cccnc2Sc2ccccc21 2.4%, Cc1ccsc1CN1CCc2nc(Nc3ccccc3)ncc2C1 -8.7%, CCCCC(=O)OC1=C(C(=O)c2ccccc2)N(CCC)S(=O)(=O)c2ccccc21 -24.8%, COc1ccccc1NC(=O)Cn1c(=O)n(Cc2ccccc2)c(=O)c2c1c1cc(C)ccc1n2C 15%

outcome, inactive:
COc1ccccc1-c1nn2c(=O)cc(CN3CCN(C(=O)Nc4ccc(C)cc4Cl)CC3)nc2s1, Cc1ccc(C2C(=O)N(C3CCC(C)CC3)CC(=O)N2C2CCCC2)cc1 (stereo not given), CCOC(=O)c1cc2c(=O)n3ccccc3nc2n(Cc2ccco2)c1=NC(=O)c1ccccc1Br, O=C(NCC(c1ccco1)S(=O)(=O)c1cccs1)c1ccccc1 (stereo not given), COC(=O)c1cc(NC(=O)c2cc3c(-c4ccccc4F)nn(C)c3s2)cc(C(=O)OC)c1, COc1ccc(OC)c(S(=O)(=O)NCC(c2ccc(N(C)C)cc2)N2CCOCC2)c1 (stereo not given), COc1ccc(-c2[nH]c(-c3ccc(O)cc3)nc2-c2ccccc2)cc1, Cc1ccc(Cn2c(SCC(=O)NCc3ccccc3)nc3ccsc3c2=O)cc1, Cc1cccc(N2CCN(S(=O)(=O)c3ccc(-c4cnc(C5CC5)o4)cc3)CC2)c1C, O=C1CCCc2cc(S(=O)(=O)N3CCCC(C(=O)NCc4ccccc4)C3)ccc2N1 (stereo not given), Cc1cc(C)c(NC(=O)CCS(=O)(=O)c2cc3c(cc2Cl)NC(=O)CO3)c(C)c1, O=C(Cn1c(SCc2ccccc2F)nc2ccncc21)Nc1ccccc1C(F)(F)F, Cc1ccc(S(=O)(=O)Nc2cccc(-c3cn4cccc(C)c4n3)c2)c(C)c1, CCOc1cc(C(=O)NCCc2sc(-c3ccc(F)cc3)nc2C)cc(OCC)c1OCC, CC(NC(=O)CSc1n[nH]c(-c2ccccc2Cl)n1)c1nc2ccccc2[nH]1 (stereo not given)
